Results taken from the BET-seq Pho4 binding data (Le et al. 2018).
Some of the results follow. Values were computed here from the reads of four pooled replicates and scatter widely.

Molecular target: T1, Pho4 (S. cerevisiae) (UniProt P07270)
T1 sequence: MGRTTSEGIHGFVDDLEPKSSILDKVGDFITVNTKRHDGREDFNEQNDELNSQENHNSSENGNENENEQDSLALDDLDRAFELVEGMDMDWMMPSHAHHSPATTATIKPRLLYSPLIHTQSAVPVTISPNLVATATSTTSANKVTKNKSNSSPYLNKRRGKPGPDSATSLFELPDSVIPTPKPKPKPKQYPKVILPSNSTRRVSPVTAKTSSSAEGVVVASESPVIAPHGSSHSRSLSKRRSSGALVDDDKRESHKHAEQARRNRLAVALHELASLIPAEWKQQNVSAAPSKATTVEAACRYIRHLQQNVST
Experiment: relative binding free energy (BET-seq); higher = weaker binding
Conditions: reference: library average

Sequence	relative binding free energy [kcal/mol]
ATCGTCACGTGAGGGT	0.3
AATCTCACGTGGGATG	0.19
TCCATCACGTGTGTGG	0.16
AATTACACGTGGTGCA	0.03
TATCTCACGTGTTGAG	0.19
ATGGGCACGTGTGTCT	-0.24
CGGAACACGTGGGATG	0.03
ATGTTCACGTGGGGAT	0.16
GGGGTCACGTGTGCTA	0.23
CAGCGCACGTGGCGGG	-0.16
TGCGGCACGTGTAGGA	-0.04
TGAAGCACGTGTGCAG	0.02
TGTCCCACGTGTGGTA	-0.07
CGTTACACGTGGGGCG	0.02
TTTGCCACGTGGCTAG	-0.03
ATTACCACGTGTTTGG	-0.08
AGATACACGTGTTTGT	0.01
ATTGGCACGTGGTACT	-0.09
TTCGTCACGTGTATTG	0.12
AGTTTCACGTGTTTCA	0.29
TAACACACGTGAGTGT	0.27

Sequence	relative binding free energy [kcal/mol]
GAGGGCACGTGAGTCA	0.09
TGTCTCACGTGCTTTG	0.09
GGAGTCACGTGCTGGC	0.14
TGTGACACGTGGAACT	0.08
TCTGGCACGTGGTGAT	-0.19
TTGGACACGTGAGTAA	0.25
GGGCGCACGTGTTGTC	0.01
GTAGGCACGTGGTTAA	0.03
GTTGGCACGTGAGAAG	0.2
TTGGCCACGTGAGTGA	0.26
GTTTCCACGTGGTTAT	-0.06
AAATACACGTGGAGTT	0.19
AAAAACACGTGAGGGG	0.23
GTAGACACGTGGGAGA	-0.14
TTTTGCACGTGTGGTA	0.07
TTGGACACGTGGATCG	0.12
TCATTCACGTGTTGAT	0.21
GTAAGCACGTGTTATG	-0.02
TGCTGCACGTGGAGAG	-0.08
GGTGCCACGTGATCTG	0.13
ATCTGCACGTGATTAT	0.19

Sequence	relative binding free energy [kcal/mol]
AATATCACGTGGGAGG	-0.04
CGTTGCACGTGGGTGG	-0.15
CGTTTCACGTGGGTTA	0.11
TTTGTCACGTGTGGGG	0.25
GGGGGCACGTGTGTTG	0.01
TAATACACGTGGGTGC	-0.13
GTGATCACGTGTAGAT	0.16
GTGGGCACGTGGCTGC	-0.21
ACGTCCACGTGGTGTG	-0.05
TGCGGCACGTGCAGTG	-0.18
GTTGCCACGTGCGGAT	0.02
TTTCACACGTGGGTTT	0.08
TCCTGCACGTGGGGGG	-0.09
TAGATCACGTGAGCTG	0.39
CAAGACACGTGGCGGG	0.08
TTTTGCACGTGGATTG	0.06
GTGGTCACGTGTAGTA	0.1
TCAAGCACGTGTTTTA	-0.05
GTTGTCACGTGCGGAT	0.09
CGTGTCACGTGTAGTG	0.06
TTTCACACGTGATATT	0.1
